Reference: PubChem BioAssay AID2147 (National Center for Advancing Translational Sciences (NCATS), 2009)
Out of some 230,000 compounds screened, about 3,600 (1.6%) were called active. Inconclusive results, whose numbers are uncertain, are shown with a selection of clear calls. Calls follow the shape of the dose curve; as a rule, active = well fitted inhibition curve with a large enough effect (not every such curve was filed as active); inconclusive = small, poorly fitted or top-dose-only effect, or another doubt; inactive = no such curve, though single readings can be large or run the other way. A potency beside an inconclusive call is a rough fit, not a confirmed value.

The compounds below were run against Lysine-specific demethylase 4E (Homo sapiens) (UniProt B2RXH2) (assay: qHTS Assay for Inhibitors of Human Jumonji Domain Containing 2E (JMJD2E)). Conditions: JMJD2E catalytic domain, FDH-coupled NADH fluorescence (FDH is formaldehyde dehydrogenase); series mostly up to 57.1 µM; activity change, negative = inhibition: at the top concentration.
Also: nearly all actives have a fitted effect of over 50% in size.
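For activity change, negative = inhibition in this document: 0% = wells with enzyme and -100% = buffer wells without enzyme.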
Potency is read from the fitted curve at half-maximal effect; tags tell the direction and shape of the fitted curve.

Sequence of UniProt B2RXH2 (B2RXH2 whole entry, looked up, the tested form may be a part): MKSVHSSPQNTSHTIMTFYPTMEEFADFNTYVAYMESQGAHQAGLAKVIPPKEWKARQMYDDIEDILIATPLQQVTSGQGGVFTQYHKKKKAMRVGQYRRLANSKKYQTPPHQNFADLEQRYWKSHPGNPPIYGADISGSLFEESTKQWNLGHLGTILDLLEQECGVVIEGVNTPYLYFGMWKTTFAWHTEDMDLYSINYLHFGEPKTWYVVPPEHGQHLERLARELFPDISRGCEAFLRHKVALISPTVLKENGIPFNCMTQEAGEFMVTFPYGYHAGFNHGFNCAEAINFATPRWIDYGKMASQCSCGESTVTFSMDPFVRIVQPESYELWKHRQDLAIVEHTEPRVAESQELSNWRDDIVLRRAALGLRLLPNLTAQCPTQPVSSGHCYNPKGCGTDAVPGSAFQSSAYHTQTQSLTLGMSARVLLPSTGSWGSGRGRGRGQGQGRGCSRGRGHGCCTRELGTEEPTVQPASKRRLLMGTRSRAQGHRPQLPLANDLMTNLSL

| Structure (SMILES) | Potency | activity change, negative = inhibition |
| --- | --- | --- |
| COc1ccc(OCc2n[nH]c(=S)n2N)cc1 | active: 15.8 µM | – |
| CCOC(=O)c1sc(-c2ccc(C(F)(F)F)cc2)nc1O | inconclusive: 39.8 µM [inhibitor, single point] | – |
| COC(=O)c1sccc1NC(=O)CSc1nnnn1-c1ccccc1C | – | inactive: -3.42% |
| CC(C)Oc1ccc(CNC(=O)Cn2c(=O)oc3ccccc32)cc1 | – | inactive: -4.29% |
| COc1ccccc1N1CCN(/N=C/c2c(C)nn(-c3ccccc3)c2C)CC1 | inconclusive: 39.8 µM [inhibitor, single point] | – |
| Cc1nn(Cc2ccc(Cl)cc2)c(C)c1NC(=O)c1noc2c1CCc1ccccc1-2 | – | inactive: 0.878% |
| Cn1c(CCC(=O)OCC(=O)NCc2ccc3c(c2)OCO3)nc(=O)c2ccccc21 | – | inactive: -8.49% |
| O=C(CCN1CCN(c2ccccc2)CC1)N/N=C/c1ccccc1O | active: 28.2 µM | – |
| CC(=O)N/C(=C/c1ccc2c(c1)OCO2)C(=O)O | inconclusive: 3.55 µM [inhibitor, full curve] | – |
| O=C(CSc1nc2ccccc2o1)N1CCN(C(=O)c2ccco2)CC1 | – | inactive: 2.32% |
| CCCCCC(=O)Nc1ccc2oc(-c3cccnc3)nc2c1 | inconclusive: 8.91 µM [inhibitor, partial curve] | – |
| CSc1ccc(/C=C/C(=O)OCC(=O)NC(C)C)cc1 | inconclusive: 15.8 µM [inhibitor, partial curve] | – |
| COc1ccccc1OCCn1cc(/C=C(\C#N)C(=O)NCc2ccco2)c2ccccc21 | – | inactive: -2.56% |
| CCN(CC)C(=O)CSc1nnc(-c2ccc(S(=O)(=O)NCc3ccccc3Cl)cc2)o1 | inconclusive: 28.2 µM [inhibitor, single point] | – |
| COc1ccc(C=O)cc1COc1c(F)c(F)cc(F)c1F | – | inactive: 0.309% |
| CC(C)c1nc(N2CCOCC2)c(C#N)c2c1COC(C)(C)C2 | inconclusive: 35.5 µM [inhibitor, partial curve] | – |
| CCc1ccc(NC(=O)Cn2ncc3c4ccccc4n(C)c3c2=O)cc1 | inconclusive: 39.8 µM [inhibitor, single point] | – |
| Cc1cc2c(NC(=O)CCCC(=O)O)cccc2nn1 | inconclusive: 39.8 µM [inhibitor, single point] | – |
| O=C(COC(=O)c1ccccc1O)Nc1ccc(OC(F)F)cc1 | inconclusive: 39.8 µM [inhibitor, single point] | – |
| CC1=CC(C)C2C(=O)N(O)C(=O)C2C1 (stereo not given) | – | inactive: 3.96% |
| O=C(CSc1ncn[nH]1)c1ccc2c(c1)OCO2 | inconclusive: 39.8 µM [inhibitor, single point] | – |
| CCn1c(Cc2cccn2C)nnc1SCC(=O)c1ccc(C)cc1 | inconclusive: 39.8 µM [inhibitor, single point] | – |
| COC(=O)c1ccc2nc(Nc3nc4ccc(F)cc4s3)sc2c1 | inconclusive: 28.2 µM [inhibitor, partial curve] | – |

| Structure (SMILES) | Potency | activity change, negative = inhibition |
| --- | --- | --- |
| O=C(Nc1ccc2oc(-c3cccnc3)nc2c1)c1ccc(Br)o1 | inconclusive: 39.8 µM [inhibitor, single point] | – |
| CC(C)Cn1nc(NC(=O)c2ccco2)c2cc3ccccc3nc21 | inconclusive: 25.1 µM [inhibitor, partial curve] | – |
| COc1ccc(-c2nn(-c3ccccc3C)cc2CNCc2cccnc2)cc1F | inconclusive: 31.6 µM [inhibitor, single point] | – |
| c1ccc(Cn2nnc3c(Nc4ccc5c(c4)OCO5)nc(C4CC4)nc32)cc1 | inconclusive: 25.1 µM [inhibitor, partial curve] | – |
| COc1ccccc1NC(=S)N(CCCN(C)C)Cc1cc2cc3c(cc2[nH]c1=O)OCO3 | inconclusive: 28.2 µM [inhibitor, partial curve] | – |
| S=c1[nH]c2cc(-c3ccccc3)ccc2o1 | inconclusive: 35.5 µM [inhibitor, single point] | – |
| Cc1cccc(-[n+]2c(-c3cccc(Br)c3)[nH]c3nc4ccccc4nc32)c1 | active: 25.1 µM | – |
| COc1ccc(N2CCn3c2nc2c3c(=O)n(CCc3ccccc3)c(=O)n2C)c(OC)c1 | – | inactive: 2.03% |
| CC(C)(C)C(=O)NC(=S)Nc1ccccc1C(=O)NC1CCCCC1 | inconclusive: 28.2 µM [inhibitor, single point] | – |
| COc1cc2c(cc1NC(=O)CN(C)Cc1nc3ccccc3c(=O)[nH]1)oc1ccccc12 | inconclusive: 39.8 µM [inhibitor, single point] | – |
| CN(C)C(=O)CSc1nc(-c2ccccc2)c(-c2ccccc2)o1 | inconclusive: 39.8 µM [inhibitor, single point] | – |
| Cc1ccc(S(=O)(=O)N(C#N)c2nc(C)cc(C)n2)cc1 | inconclusive: 25.1 µM [inhibitor, single point] | – |
| CCc1ccc(OCC(=O)Nc2cccc3nsnc23)cc1 | inconclusive: 28.2 µM [inhibitor, partial curve] | – |
| Cc1cc(C)c2c(N)c(-c3nc4ccccc4[nH]3)sc2n1 | inconclusive: 31.6 µM [inhibitor, partial curve] | – |
| Cc1ccc(-c2csc(-c3c[nH]c4ccccc34)n2)c(C)c1 | inconclusive: 39.8 µM [inhibitor, single point] | – |
| Oc1[nH]c2ccccc2c1N=NC(=S)NCC1CCCO1 (stereo not given) | – | inactive: -8.6% |
| O=S1(=O)Nc2c(ccc3cccnc23)-c2ccccc21 | inconclusive: 39.8 µM [inhibitor, single point] | – |
| COc1ccc(C(=O)/C=C/c2ccc(OC)c(CN3CCOCC3)c2)cc1 | inconclusive: 28.2 µM [inhibitor, single point] | – |
| CCOC(=O)c1c(NC(=O)c2ccc(Br)o2)sc2c1CCCC2 | inconclusive: 8.91 µM [inhibitor, single point] | – |
| COc1cc(NCCCC(C)N)c2ncccc2c1 (stereo not given) | inconclusive: 28.2 µM [inhibitor, partial curve] | – |
| CN(C)CCCN=Cc1c(O)n(Cc2ccc3c(c2)OCO3)c(=O)c2ccccc12 | inconclusive: 28.2 µM [inhibitor, single point] | – |
| Cc1ccc(S(=O)(=O)N2CCCCC2)cc1NC(=O)Cn1c(=O)cnc2ccccc21 | inconclusive: 35.5 µM [inhibitor, partial curve] | – |
